Over roughly 81,000 sequences, “one-hybrid fitness for binding parS DNA” has its median near -0.17; the highest 2% begin near 0.51. The list shows a part of the results.
B1: Caulobacter ParB omega fusion; a variant is named by its letters at X, in order, B8GW30 (parent)
chain: MESVVVGEPGMSEGRRGLGRGLSALLGEVDAAPAQAPGEQLGGSREAPIEILQRNPDQPRRTFREEDLEDLSNSIREKGVLQPILVRPSPDTAGEYQIVAGERAWRAAQRAGLKTVPIMVRELDDLAVLEIGIIENVQRADLNVLEEALSYKVLMEKFERTQENIAQTIGKSXSHVANXMRLLXLPDEVQSYLVSGELTAXHARAIAAAADPVALAKQIIEGGLSVRETEALARKAPNLSAGKSKGGRPPRVKDTDTQALESDLSSVLGLDVSIDHRGSTGTLTITYATLEQLDDLCNRLTRGI

Variants of: B1
Test: one-hybrid fitness for binding parS DNA (scaled: cognate 1, non-cognate 0); higher = stronger binding
Conditions: with parS DNA site
Outline: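 Pre- and post-selection plasmids were Illumina-sequenced, three replicate libraries were pooled, and any variant with under 10 reads was removed. The libraries were Caulobacter ParB with four specificity codons randomised, selected in E. coli USO through a HIS3 reporter whose site is 19 bp from the promoter. Cells grew 48 hours at 37°C on M9 without histidine, with 0.1 mM IPTG and 5 mM 3-AT. Fitness is the log change in variant-to-wild-type read ratio, rescaled against cognate and non-cognate.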

Variant	one-hybrid fitness for binding parS DNA
AYKL	≤ 0.2
PEMR	≤ 0.2
MERK	≤ 0.2
RHFF	≤ 0.2
WTIR	≤ 0.2
ENMR	≤ 0.2
GTYL	≤ 0.2
YNSA	≤ 0.2
QEWG	≤ 0.2
RVKF	0.355
LYTD	≤ 0.2
QVQT	≤ 0.2
GPEC	≤ 0.2
EYDL	≤ 0.2
NVLV	≤ 0.2
INWR	≤ 0.2
QPSL	≤ 0.2
RDDM	≤ 0.2
QWGG	≤ 0.2
KYYG	≤ 0.2
AHVT	≤ 0.2
TRAP	≤ 0.2
MLAY	≤ 0.2
VMET	≤ 0.2
LYPH	≤ 0.2
MTMK	≤ 0.2

Variant	one-hybrid fitness for binding parS DNA
LNVC	≤ 0.2
MQNL	≤ 0.2
QYVC	≤ 0.2
YPET	≤ 0.2
WAAS	≤ 0.2
LKDL	≤ 0.2
SISC	≤ 0.2
TDVE	≤ 0.2
SIRK	≤ 0.2
NDLR	≤ 0.2
PVMG	≤ 0.2
AHMC	≤ 0.2
HGKC	≤ 0.2
RCNF	0.274
WKSI	≤ 0.2
PWLY	≤ 0.2
LTKW	≤ 0.2
VHSS	≤ 0.2
NDKR	≤ 0.2
TDTP	≤ 0.2
YFAF	≤ 0.2
HKYW	≤ 0.2
FLTW	≤ 0.2
GVVV	≤ 0.2
HAGE	≤ 0.2
GVTT	≤ 0.2

Variant	one-hybrid fitness for binding parS DNA
VIDS	≤ 0.2
NPTV	≤ 0.2
AVNC	≤ 0.2
KRIY	≤ 0.2
SGQN	≤ 0.2
RCAY	0.454
DLAY	≤ 0.2
CTTR	≤ 0.2
EGCK	≤ 0.2
KTSN	≤ 0.2
MGQM	≤ 0.2
QMLS	≤ 0.2
KIAT	≤ 0.2
NTTS	≤ 0.2
PQWR	≤ 0.2
QKSS	≤ 0.2
AEAV	≤ 0.2
NDRR	≤ 0.2
QCLG	≤ 0.2
KIEG	≤ 0.2
PLTN	≤ 0.2
CHNS	≤ 0.2
LPEN	≤ 0.2
RFCA	0.518
RCGM	0.319
YLDF	≤ 0.2

Variant	one-hybrid fitness for binding parS DNA
GLRG	≤ 0.2
FRTL	≤ 0.2
WYKC	≤ 0.2
SSKY	≤ 0.2
YSSL	≤ 0.2
SYCN	≤ 0.2
ADAI	≤ 0.2
AHKV	≤ 0.2
ASQC	≤ 0.2
HFGT	≤ 0.2
PSNT	≤ 0.2
AKIS	≤ 0.2
DFNR	≤ 0.2
DKRR	≤ 0.2
PMEI	≤ 0.2
KATV	≤ 0.2
RIHS	0.97
QGKR	≤ 0.2
PVCI	≤ 0.2
PNTL	≤ 0.2
RPTE	≤ 0.2
KKTA	≤ 0.2
RNPG	0.433
LPAH	≤ 0.2
CRWC	≤ 0.2
ASAH	≤ 0.2

Variant	one-hybrid fitness for binding parS DNA
HTAT	≤ 0.2
KMRS	≤ 0.2
DHLG	≤ 0.2
QQKI	≤ 0.2
ALTC	≤ 0.2
SSHN	≤ 0.2
FSHR	≤ 0.2
GPHG	≤ 0.2
ETVS	≤ 0.2
VHKV	≤ 0.2
QNRC	≤ 0.2
IGNG	≤ 0.2
YFVT	≤ 0.2
QHEF	≤ 0.2
KSLS	≤ 0.2
GGCG	≤ 0.2
DGVN	≤ 0.2
TYNH	≤ 0.2
RFIK	≤ 0.2
AGND	≤ 0.2
IGAY	≤ 0.2
KSRF	≤ 0.2
PVIP	≤ 0.2
CTSW	≤ 0.2
RNTK	≤ 0.2
SGAA	≤ 0.2

Variant	one-hybrid fitness for binding parS DNA
KTRE	≤ 0.2
MTHF	≤ 0.2
FCNS	≤ 0.2
QTNK	≤ 0.2
SPTD	≤ 0.2
DYNM	≤ 0.2
IKTL	≤ 0.2
RYCP	≤ 0.2
LRAQ	≤ 0.2
SQKK	≤ 0.2
TGRG	≤ 0.2
KRKG	≤ 0.2
QRCY	≤ 0.2
LAWY	≤ 0.2
YQLC	≤ 0.2
MLIN	≤ 0.2
RYNE	≤ 0.2
PHVY	≤ 0.2
EQVT	≤ 0.2
TYAY	≤ 0.2
IDYY	≤ 0.2
NMMR	≤ 0.2
RSME	≤ 0.2
